# This is one part of the list. Sequences were assembled here from the parent chain. Values near 0.05 are background.
# B1: TEV protease; numbered along this chain (parent)
# chain: MGESLFKGPRDYNPISSSICHLTNESDGHTTSLYGIGFGPFIITNKHLFRRNNGTLVVQSLHGVFKVKDTTTLQQHLVDGRDMIIIRMPKDFPPFPQKLKFREPQREERICLVTTNFQTKSMSSMVSDTSCTFPSGDGIFWKHWIQTKDGQCGSPLVSTRDGFIVGIHSASNFTNTNNYFTSVPKNFMELLTNQEAQQWVSGWRLNADSVLWGGHKVFMVKPEEPFQPVKEATQL
# Variants of: B1
# Experiment: raw area under fraction-flipped curve 0-4 h after induction (AUC4h, not background-subtracted), DNA-recorder readout of cleavage of the substrate (dimensionless); higher = more cleavage of the substrate by the protease variant
# Settings: temperature: 34 °C; time window: 0-4 h after rhamnose induction
# Protocol: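 In vivo DNA recorder in E. coli TOP10(DE3) ΔrhaA at 34 °C. Each TEVp single-site mutant (parent TEVp 0) is paired with a single-site variant of the 7-mer TEVs (canonical ENLYFQ|S). The substrate sits between flexible linkers in a Bxb1-sfGFP-TEVs-SsrA fusion, so cleavage stabilises Bxb1 and speeds flipping of a recombination array, read by NGS. The value is the raw area under the fraction-flipped curve over 0-4 h after rhamnose induction (AUC4h), with ≥20 reads per time point. It is not background-subtracted; inactive controls average about 0.047.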
# 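Note: Bxb1 expression induced with 0.2% (w/v) L-rhamnose at OD600 near 0.5, cultures sampled hourly, flipped fraction per protease–substrate barcode pair counted by paired-end Illumina sequencing.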
Variant,area with substrate ENLYFAS,area with substrate ENLYFCS,area with substrate ENLYFDS,area with substrate ENLYFES,area with substrate ENLYFFS,area with substrate ENLYFGS,area with substrate ENLYFHS,area with substrate ENLYFKS,area with substrate ENLYFLS,area with substrate ENLYFMS,area with substrate ENLYFIS,area with substrate ENLYFNS,area with substrate ENLYFSS,area with substrate ENLYFTS,area with substrate ENLYFVS,area with substrate ENLYFWS,area with substrate ENLYFPS,area with substrate ENLYFYS,area with substrate ENLYFRS
I139R,0.0585,0.0468,0.0652,0.0615,0.0702,0.0641,0.0427,0.0465,0.0455,0.043,–,–,–,–,–,–,–,–,–
G150I,0.0643,0.0678,–,0.0576,0.0656,0.0497,0.064,0.0438,0.0633,0.0628,0.0532,0.0554,0.063,0.0568,0.0627,0.0542,–,–,–
P94S,0.0633,0.0573,–,0.0651,0.0676,–,–,0.0524,–,0.066,0.0598,0.0606,–,0.0623,0.0595,0.0701,0.0538,0.0564,–
V78L,0.0703,0.0559,–,–,0.0456,–,–,0.0691,–,0.0617,0.0585,0.0622,–,0.0597,–,0.0714,–,0.0549,–
P9I,0.0695,–,–,0.0666,0.0614,–,–,–,0.0564,0.0652,0.0649,0.0736,0.0591,0.057,–,–,0.058,–,0.0509
L205K,0.0589,–,0.0501,–,–,0.0649,0.066,–,–,0.069,–,0.0589,–,–,–,–,–,–,–
N172I,0.0484,–,–,0.0582,0.0703,0.0587,0.0554,–,0.0659,0.0472,0.0585,–,–,0.0613,–,0.0592,0.0609,–,0.0556
R10Y,0.061,0.0882,–,0.0569,0.0777,–,0.0582,0.0667,0.0539,0.0552,0.0577,0.0662,0.0652,–,0.0523,–,0.0699,0.057,0.082
N53W,0.035,–,0.0831,0.0649,0.0657,0.0666,–,0.0593,0.0643,0.0648,0.0468,–,–,0.0519,0.0536,0.0614,0.0523,0.0494,0.063
H215P,0.0604,0.0608,0.0697,0.0511,0.0614,–,0.0527,–,0.0553,0.0609,0.0563,–,–,0.0857,0.046,–,0.052,–,–
T129N,0.0741,0.0594,0.064,–,0.0539,–,–,0.0611,0.0612,0.0734,0.0491,–,0.0525,–,–,0.0578,0.0553,0.0501,0.0631
S127Q,0.0627,–,0.0595,0.0842,0.0745,0.0343,0.0702,0.058,–,–,0.0664,–,0.0644,0.0542,0.0706,0.116,0.0626,–,–
S135C,0.0718,0.0619,–,0.0506,0.0737,–,0.0545,0.0212,0.0517,0.0589,0.0559,0.0666,0.0502,0.0629,0.0565,0.0557,0.061,0.0556,0.0908
E107R,0.0528,0.0504,–,0.0705,0.0731,–,0.0606,0.0856,0.0567,0.0598,0.0591,0.0636,0.0569,–,–,0.0505,0.0633,0.0629,0.054

# — the supplement of paper PMC12217912
